Source: PubChem BioAssay AID2676 (National Center for Advancing Translational Sciences (NCATS), 2010)
Values joined by “and” are separate entries in the source; they are usually repeats but may differ in a detail not shown here. Equal values may be shown once. Out of some 370,000 compounds screened, about 1,100 (0.3%) were called active. The inconclusive results got no clear call from the source; some entries with a clear call stand among them for comparison. Calls come from the whole dose curve; as a rule, active = well fitted activation curve with a large enough effect; inconclusive = small, poorly fitted or top-dose-only effect; inactive = flat fitted curve, though single readings scatter. Potencies beside an inconclusive call are fits to weak or partial responses and may not hold up.

Target: Relaxin receptor 1 (Homo sapiens) (UniProt Q9HBX9)
Sequence of UniProt Q9HBX9 (Q9HBX9 whole entry, looked up): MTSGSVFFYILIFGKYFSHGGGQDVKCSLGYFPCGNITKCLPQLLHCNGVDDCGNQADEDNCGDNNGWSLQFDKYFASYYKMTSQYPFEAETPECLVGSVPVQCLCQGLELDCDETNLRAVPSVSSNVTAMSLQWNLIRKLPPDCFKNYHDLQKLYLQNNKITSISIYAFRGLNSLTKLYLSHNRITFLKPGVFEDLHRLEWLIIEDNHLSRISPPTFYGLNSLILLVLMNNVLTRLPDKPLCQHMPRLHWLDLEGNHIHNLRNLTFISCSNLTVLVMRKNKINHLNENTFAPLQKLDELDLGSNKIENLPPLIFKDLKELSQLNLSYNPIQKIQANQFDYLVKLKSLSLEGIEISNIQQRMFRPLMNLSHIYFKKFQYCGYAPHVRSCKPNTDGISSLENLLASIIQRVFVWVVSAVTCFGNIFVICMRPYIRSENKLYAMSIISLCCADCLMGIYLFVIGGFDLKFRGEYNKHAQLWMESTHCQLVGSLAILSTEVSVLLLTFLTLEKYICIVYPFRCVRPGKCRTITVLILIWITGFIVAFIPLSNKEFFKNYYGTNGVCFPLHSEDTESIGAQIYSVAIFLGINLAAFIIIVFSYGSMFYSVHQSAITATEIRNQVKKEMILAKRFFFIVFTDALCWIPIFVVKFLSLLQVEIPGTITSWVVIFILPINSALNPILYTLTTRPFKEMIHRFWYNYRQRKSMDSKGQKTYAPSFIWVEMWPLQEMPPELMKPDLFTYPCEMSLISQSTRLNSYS
Assay: qHTS Assay for Agonists of the Relaxin Receptor RXFP1; note: nearly all actives have a fitted effect of over 60% in size
Conditions: HEK293T-RXFP1 cAMP TR-FRET, 30 min; series mostly up to 57.5 µM
Outline: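 HEK293 cells stably expressing RXFP1, treated 30 min at 37C with compounds plus PDE4 inhibitor Ro 20174; cAMP measured by HTRF TR-FRET. Normalized to buffer and 29 nM porcine relaxin; EC50 by Hill fit.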
Potency is the fitted concentration of half-maximal effect; tags give direction and shape of the fitted curve.

Structure (SMILES) | Potency
Cc1cccc2cc(C#N)c(SCC#N)nc12 | inconclusive: 35.5 µM [activator, single point]
Cc1ccccc1N1C(=O)CC(Sc2nnc(-c3ccccc3)o2)C1=O (stereo unspecified) | inconclusive: 28.2 µM [activator, partial curve]
O=C(CCl)N1CCN2C(=O)c3ccccc3C12c1ccc(Cl)cc1 (stereo unspecified) | inactive
COc1cccc(NC(=S)Nc2cc(C)cc(C)n2)c1 | inconclusive: 28.2 µM [activator, single point]
Cc1cc(Br)ccc1SCC(=O)OCC(=O)c1c(N)n(C)c(=O)n(C)c1=O | inconclusive: 17.8 µM [activator, partial curve]
COc1ccc(CNC(=O)CCc2c(C)nc3c(c2C)c(=O)n(C)c(=O)n3C)cc1 | inconclusive: 35.5 µM [activator, single point]
COc1ccc(OC)c(CCNC(=O)CCCc2nnc3n(C)c(=O)c4sccc4n23)c1 | inconclusive: 14.1 µM [activator, partial curve] and inconclusive: 25.1 µM [activator, partial curve]
CCOC(=O)c1cc2c(=O)n3ccccc3nc2n(Cc2ccco2)c1=NC(=O)c1cc(C)cc(C)c1 | inconclusive: 31.6 µM [activator, single point]
Cc1ccc(Cl)cc1NC(=O)c1oc2ccc(S(=O)(=O)N3CCC4(CC3)OCCO4)cc2c1C | inconclusive: 28.2 µM [activator, single point]
Cc1cc(C)c(NC(=O)c2sc3nc(C)cc(C)c3c2N)c(C)c1 | inactive
Cc1ccc(NC(=O)c2cc(-c3ccc4c(c3)OCO4)on2)cc1 | inconclusive: 31.6 µM [activator, single point]
CCC1CCCCN1C(=O)CSc1nc2c(c(=O)n(C)c(=O)n2C)n1C (stereo unspecified) | inconclusive: 20 µM [activator, partial curve]
COc1ccc(OC)c(S(=O)(=O)Nc2cc(OC)c(Cl)cc2OC)c1 | inactive
CCOC(=O)/C(C#N)=C\c1ccc(OCC(=O)Nc2ccc(C)cc2C)c(OC)c1 | inconclusive: 39.8 µM [activator, single point]
COC(=O)CCc1c(C)c(C(=O)c2cc(OC)c(OC)c(OC)c2)c2ccccn12 | inconclusive: 22.4 µM [activator, partial curve]
Nc1c(-c2ccc(Cl)cc2)cnc2c(-c3ccccc3)cnn12 | inconclusive: 39.8 µM [activator, single point]
N#CC(=C=[N-])C1=C(C#N)C(c2ccccc2F)C([n+]2ccccc2)C(O)(C2CC2)N1 (stereo unspecified) | active: 25.1 µM
Cc1nnc(Oc2ccc([N+](=O)[O-])cc2)c2ccccc12 | inconclusive: 20 µM [activator, partial curve]
Cc1ccc(CNC(=O)c2ccc3c(c2)NC(=O)C(CS(=O)(=O)Cc2cccc(F)c2)N3)cc1 (stereo unspecified) | inconclusive: 39.8 µM [activator, single point]
CCc1ccc(C(=O)c2cn(CC(=O)NCc3ccc(C)cc3)c3nc(C)ccc3c2=O)cc1 | inconclusive: 6.31 µM [activator, single point]
COCCCNc1nc2c(-c3cccc(Br)c3)nnn2c2ccccc12 | inconclusive: 35.5 µM [activator, single point]

Structure (SMILES) | Potency
COc1ccc(-c2ccc(SCC(=O)Nc3nccs3)nn2)cc1OC | inconclusive: 35.5 µM [activator, single point]
COC(=O)c1c(NC(=O)c2ccccc2)sc(C(N)=O)c1C | inconclusive: 35.5 µM [activator, single point]
CCN(CC)C(=O)CSc1nc2c(sc(=S)n2CC)c(=O)n1-c1ccccc1 | inactive
O=C(Nc1ccc2oc(-c3cc(Br)ccc3Cl)nc2c1)c1cc2ccccc2o1 | active: 20 µM
O=C(NN1CCOCC1)c1cc(-c2cccs2)nc2ccccc12 | inactive
Cc1cccc(N2CCN(C(=O)c3c(C)nn(Cc4ccccc4Cl)c3C)CC2)c1C | inactive
COc1ccc(C2c3c(n(C)c4ccccc34)C(=O)N2CC(=O)Nc2cccc(Cl)c2C)cc1 (stereo unspecified) | inactive
CCS(=O)(=O)Nc1cccc(-c2ccc3nnc(-c4cccnc4)n3n2)c1 | inconclusive: 14.1 µM [activator, partial curve]
Cn1c(=O)c2sccc2n2c(CCCC(=O)NCc3ccc4c(c3)OCO4)nnc12 | inconclusive: 25.1 µM [activator, single point]
CCOC(=O)c1c(C)oc2nc(C)nc(NCc3ccccc3Cl)c12 | inconclusive: 39.8 µM [activator, single point]
Cc1ccc2c(=O)c(C(=O)c3ccc(F)cc3)cn(CC(=O)NCc3ccccc3)c2n1 | inconclusive: 35.5 µM [activator, single point]
COc1ccccc1Nc1nn2c(=O)c3ccc(C(=O)NCc4cccs4)cc3nc2s1 | inconclusive: 31.6 µM [activator, single point]
CC(C)c1nc2sc3c(NCc4ccco4)ncnc3c2c2c1COC(C)(C)C2 | inconclusive: 39.8 µM [activator, single point]
COCCNC(=O)/C(C#N)=C/c1c(N2CCCCCC2)nc2ccccn2c1=O | inconclusive: 17.8 µM [activator, partial curve]
Cc1cccc(/N=C2/NC(=O)C(Cc3ccccc3)S2)n1 (stereo unspecified) | inconclusive: 39.8 µM [activator, single point]
CN(C1CCCCC1)S(=O)(=O)c1ccc2c(c1)c(=O)c(C(=O)NCCc1ccc(Cl)cc1)cn2C | inconclusive: 39.8 µM [activator, single point]
Cc1nn(CC(=O)NCCN2CCOCC2)c(=O)c2cc3sccc3n12 | inconclusive: 28.2 µM [activator, partial curve]
CCn1c(Cc2ccccc2)nnc1SCC(=O)Nc1nc2ccccc2s1 | inconclusive: 39.8 µM [activator, single point]
COc1ccc(OC)c2c(N3CC(C)OC(C)C3)cc(C(F)(F)F)nc12 (stereo unspecified) | inactive
O=C1Nc2cc(Cl)c(Cl)cc2N(O)N1c1ccc(Cl)c(Cl)c1 | inactive
